Test results published in the supplement of paper PMC11417369.
± gives the standard deviation of the averaged measurements. The list shows a part of the results.

System: PfAP2-I AP2 domain 3 (GST-tagged)
Experiment: gcPBM binding intensity (ln(normalized median fluorescence intensity)); higher = stronger DNA binding
Procedure, shortened: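 An Agilent 4 × 180k array of primer-extended double-stranded 36-bp intergenic genomic probes, with negative controls, was incubated for 1 h with GST-tagged P. falciparum DNA-binding domains expressed in E. coli. Alexa488 anti-GST antibody detected bound protein, scanned at 488 nm. Binding intensity is the highest Masliner-normalised natural-log median intensity across replicate spots of either probe orientation.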

| Sequence | gcPBM binding intensity (ln) |
| --- | --- |
| TATATTGATGATGATAGTACGTATGATTAGAAAAAA [XGTACX_site8989] | 7.92 ± 0.63 |
| ATAGACAGCGCACAAACACACAAACACCCACCCACA [CACACA_site8043] | 9.12 ± 0.16 |
| TATATATATATGTGTACACAATTTATCTGTATTTAT [CACACA_site5945] | 9.31 ± 0.19 |
| AAAAAAAAAAAAATACGTACATACATACCTACATAT [XGTACX_site233] | 8.21 ± 0.099 |
| TTTTTTTTTTTTTTTTGTACGTATCAAAAAATTTGT [XGTACX_site1023] | 7.95 ± 0.56 |
| AATCAATAAATAAAAACATGCATATATATATATATA [TGCATGCA_site438] | 9.46 ± 0.43 |
| AAAAATAAATTTAGTTGTACTTTATTATTTTAAATA [XGTACX_site3067] | 7.61 ± 0.39 |
| CATTAATAAAAAAAAAGTACAAAAAATATATATATT [XGTACX_site2091] | 7.88 ± 0.54 |
| AAAATAAAAATATTCACACATACAAAAATTATACAA [CACACA_site5136] | 7.54 ± 0.6 |
| ATAATATATATATATAGTACATATATATAATATTCT [XGTACX_site2445] | 7.735 ± 0.049 |
| ATTTTTTTACTGTAACCATATTTTTCCCTTTTATTC [CACACA_negctrl_site1143] | 7.95 ± 0.79 |
| CCATTAAATACATACACACCCACACCCAAAAAAAAA [CACACA_site4633] | 9.29 ± 0.39 |
| AAAAAAAAAAATATAACACACAAAAAATTGTATCGA [CACACA_site1144] | 7.53 ± 0.26 |
| ACAAAATTTACAAAATGTACATATTGTAGATATTGT [XGTACX_site7618] | 7.55 ± 0.52 |
| ATATAGTAAAATTATACACACATGAATTTTCCCATA [CACACA_site3113] | 7.75 ± 0.52 |
| TAAAAATATATACATACATGCATACATATATATGTA [TGCATGCA_site774] | 7.56 ± 0.44 |
| TTTTTAACATATCATACACACAACAACTTTTTATAG [CACACA_site1962] | 7.9 ± 0.55 |
| CAAGCCCTTCTGCTTACACACAGTAATTATTGTGTA [CACACA_site2953] | 7.52 ± 0.78 |
| ATTATATATACACGCACACACACTTATATATATATA [CACACA_site9093] | 9.34 ± 0.3 |
| CATTCATTTATTAATTGTACTTTTAAGGTTAAATAA [XGTACX_site5838] | 7.6 ± 0.26 |
| TAATTTATTATATTTTGTACGTAAAATTATTATTGT [XGTACX_site8155] | 7.87 ± 0.28 |
| TAGGAAAAGAAAAGCACACACATAAATAAATATATA [CACACA_site504] | 7.96 ± 0.26 |
| AATATATATTTATATTGTACATATATATATATTTCT [XGTACX_site2603] | 7.55 ± 0.34 |

| Sequence | gcPBM binding intensity (ln) |
| --- | --- |
| AATATTTATTTTACATGTACTTATTTTTCTTTTAAC [XGTACX_site3631] | 8.22 ± 0.21 |
| CACATACAGACATACACACACATATAGATTAATATA [CACACA_site6399] | 7.93 ± 0.23 |
| AATAAGAAATGTAAATGTACATAAAAAAAAGTATAT [XGTACX_site3573] | 8.2 ± 0.68 |
| TATATATATATATTATGTACATATATATTAAATATG [XGTACX_site2494] | 8.91 ± 0.092 |
| TTAGGGTTTTATAAATGTACTTATTTATACATCCTC [XGTACX_site5769] | 7.64 ± 0.46 |
| ATTTTTTAACATATCATACACACAACCACTTTTTAT [CACACA_site1961] | 8.35 ± 0.23 |
| TAAACATTTTTGCACGCACACAAAAAAAAAATAAAA [CACACA_site167] | 9.94 ± 0.42 |
| TATTTATATTTTAACACACACATATTTATATTTATA [CACACA_site7324] | 7.92 ± 0.39 |
| ATTTATTCATTTGGGTGTACTATTTAAAAAAAACAA [XGTACX_site498] | 8.59 ± 0.26 |
| TATATATAATTTTATACATGCACATATTATATATAT [TGCATGCA_site1036] | 8.65 ± 0.67 |
| TATATTTTTTAAACCACACACAATATAGAGTATAAT [CACACA_site4510] | 7.98 ± 0.48 |
| TTTATATACTATTCAAAGTGATAAATAATATATGAA [TGCATGCA_negctrl_site352] | 7.49 ± 0.56 |
| TATAAATAAAGACACACACACATATAAATAAATATA [CACACA_site7155] | 7.87 ± 0.42 |
| ATTTATTTATTAAGATGTACTTATTAAAAATAATAA [XGTACX_site7392] | 7.54 ± 0.16 |
| AAAAAAAAAAAACATACACACAATAAAATAGGGGTA [CACACA_site2399] | 7.87 ± 0.42 |
| AAAAAAAAAAAACATACACACAAATATGTACATACA [CACACA_site7807] | 7.75 ± 0.3 |
| TATATATTAATATATGCATGTACGATTATTATAATA [TGCATGCA_site446] | 7.95 ± 0.48 |
| TAAATACAAAAATGTACACACATATAAATATTTTTA [CACACA_site7612] | 7.76 ± 0.15 |
| AATAAAAATCCACAAGCACACAAATGTACTTATATA [CACACA_site8783] | 7.74 ± 0.49 |
| ACAAGATGATGGAAATGTACATAAAAAGAATCATAT [XGTACX_site8682] | 8.51 ± 0.88 |
| TTTTTTTTTATATTTAGTACATATATATTATTATAT [XGTACX_site3334] | 7.8 ± 0.61 |
| AACACTACATAAAACTGTACAATAGTATTTTATTAT [XGTACX_site996] | 7.67 ± 0.47 |
